Measurements published in PubChem BioAssay AID2675 (National Center for Advancing Translational Sciences (NCATS), 2010).
The whole screen tested about 280,000 compounds, of which about 100 (0.036%) were called active. The shares of active, inactive and inconclusive entries below differ from those in the screen. Calls follow the shape of the dose curve; as a rule, active = well fitted inhibition curve with a large enough effect in the signal ratio, with a control signal flat (not every such curve was filed as active); inconclusive = small, poorly fitted or top-dose-only effect, or effect the other way, or a change in a side signal; inactive = no such curve, though single readings can be large or run the other way; the % refers to the signal ratio. Where the call is inconclusive, the potency comes from a doubtful curve fit. A note “side channel” means that the fit belongs to a control or component signal, not to the main read-out.

These compounds were tested against Muscleblind-like protein 1 (Homo sapiens) (UniProt Q9NR56) (assay: qHTS Assay for Inhibitors of MBNL1-poly(CUG) RNA binding). Conditions: TR-FRET MBNL1-His/biotin-(CUG)12 binding, 665/545 ratio; series mostly up to 57.5 µM.
Outline: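 Ratiometric TR-FRET (665 over 545 nm, excitation 340 nm) tracks disruption of MBNL1-His/biotin-(CUG)12 complex after 60 min at room temperature, with compounds at 92 nM to 58 uM final.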
Potency is read from the fitted curve at half-maximal effect; tags tell the direction and shape of the fitted curve or compound fluorescence and quenching.

Chain of UniProt Q9NR56 (Q9NR56 whole entry, looked up): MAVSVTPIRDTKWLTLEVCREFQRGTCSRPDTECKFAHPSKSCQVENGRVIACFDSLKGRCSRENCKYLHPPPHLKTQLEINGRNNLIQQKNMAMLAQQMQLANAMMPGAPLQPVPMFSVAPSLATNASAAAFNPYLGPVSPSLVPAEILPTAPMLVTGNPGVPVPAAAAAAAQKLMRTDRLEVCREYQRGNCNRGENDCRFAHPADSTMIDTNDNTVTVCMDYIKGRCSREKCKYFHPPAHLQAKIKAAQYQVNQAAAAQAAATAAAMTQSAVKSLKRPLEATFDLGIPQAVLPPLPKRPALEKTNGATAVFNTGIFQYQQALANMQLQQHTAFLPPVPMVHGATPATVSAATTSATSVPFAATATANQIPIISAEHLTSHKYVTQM

SMILES | Potency
Cc1ccc2cc3c(N)c(C(=O)N4CCOCC4)sc3nc2c1 | inconclusive: 12.6 µM [quencher, side channel, partial curve]
O=C(CNC(=O)C(c1ccccc1)c1ccccc1)N/N=C/c1ccc(O)c([N+](=O)[O-])c1 | inconclusive: 15.8 µM [quencher, side channel, partial curve]
N=C1CCCN1CC(=O)c1ccc(Cl)cc1 | inactive
CC(=O)N(C1CC(C)C(C#N)(C#N)C1(C#N)C#N)N(C)C (stereo not drawn) | inactive
CN(C)CCN(C)Cc1c2ccccc2c(CN(C)CCN(C)C)c2ccccc12 | inconclusive: 22.4 µM [quencher, side channel, single point]
O=C(O)CSc1c2c(nc3cc(C(=O)NCCN4CCOCC4)ccc13)CCC2 | inconclusive: 17.8 µM [quencher, side channel, partial curve, poor fit]
Cc1cc(C)n2nc(N)c(N=Nc3ccccc3)c2n1 | inconclusive: 25.1 µM [quencher, side channel, partial curve]
CCOCCCNC(=S)NC1CC2CCC(C1)N2Cc1ccccc1 (stereo not drawn) | inactive
O=C(O)/C=C/C(=O)NNc1ccc([N+](=O)[O-])cc1 | inconclusive: 31.6 µM [quencher, side channel, single point]
CC(=O)c1nc(-c2ccccc2)sc1C | inconclusive: 20 µM [quencher, partial curve]
COc1cccc(N=c2oc3cc(O)ccc3cc2C(=O)NCC2CCCO2)c1 (stereo not drawn) | inactive
O=C(N/N=C/C=C/c1ccco1)c1cnccn1 | inconclusive: 12.6 µM [quencher, side channel, partial curve]
O=C(N/N=C\c1cc(Br)cs1)c1ccncc1 | inconclusive: 17.8 µM [quencher, side channel, partial curve]
CN(CC(=O)Nc1ccc(N2CCOCC2)cc1)Cc1c(O)ccc2ccccc12 | inactive
COc1ccc(NC(=O)COC(=O)c2cc([N+](=O)[O-])ccc2N2CCOCC2)cc1 | inconclusive: 14.1 µM [quencher, side channel, partial curve]
CC(=O)c1ccc(N2CCN(C(=O)C3CCCN(S(=O)(=O)c4c(C)[nH]c(=O)[nH]c4=O)C3)CC2)cc1 (stereo not drawn) | inactive
C/C(Cn1nnc([N+](=O)[O-])n1)=N\NC(=O)c1cccc(Cl)c1 | inconclusive: 17.8 µM [quencher, side channel, partial curve]
O=C(NC1CC1)c1cc(Cl)ccc1[N+](=O)[O-] | inconclusive: 31.6 µM [quencher, side channel, partial curve]
